Reference: patent US20210130436A1 (published 2021)

B1: variant CD80 IgV-Fc A26E/E35D/M47L/V68M/A71G/D90G (Fc fusion, not shown: small tags and cut ends; a dimerising Fc or GST)
chain: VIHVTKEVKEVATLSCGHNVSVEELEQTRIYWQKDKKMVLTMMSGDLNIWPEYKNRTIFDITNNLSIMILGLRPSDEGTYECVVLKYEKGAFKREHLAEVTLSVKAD
B2: variant CD80 IgV-Fc A26E/E35D/V68M/A71G/D90G (Fc fusion, not shown: small tags and cut ends; a dimerising Fc or GST)
chain: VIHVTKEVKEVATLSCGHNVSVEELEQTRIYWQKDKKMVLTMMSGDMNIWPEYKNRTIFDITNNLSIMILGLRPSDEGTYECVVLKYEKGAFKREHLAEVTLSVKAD
B3: variant CD80 IgV-Fc H18Y/A26E/E35D/A71G/D90G (Fc fusion, not shown: small tags and cut ends; a dimerising Fc or GST)
chain: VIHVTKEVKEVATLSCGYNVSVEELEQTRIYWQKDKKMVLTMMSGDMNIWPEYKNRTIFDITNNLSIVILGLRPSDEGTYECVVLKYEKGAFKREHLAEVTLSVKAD
B4: variant CD80 IgV-Fc H18Y/A26E/E35D/M47L/A71G (Fc fusion, not shown: small tags and cut ends; a dimerising Fc or GST)
chain: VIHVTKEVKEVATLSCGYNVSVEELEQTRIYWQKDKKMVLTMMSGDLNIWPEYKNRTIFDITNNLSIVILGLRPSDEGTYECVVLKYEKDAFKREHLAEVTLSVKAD
B5: variant CD80 IgV-Fc H18Y/A26E/E35D/M47L/D90G (Fc fusion, not shown: small tags and cut ends; a dimerising Fc or GST)
chain: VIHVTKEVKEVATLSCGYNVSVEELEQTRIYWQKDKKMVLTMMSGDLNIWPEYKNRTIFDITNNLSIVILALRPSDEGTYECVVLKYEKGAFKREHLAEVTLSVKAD
B6: variant CD80 IgV-Fc H18Y/A26E/E35D/M47L/V68M (Fc fusion, not shown: small tags and cut ends; a dimerising Fc or GST)
chain: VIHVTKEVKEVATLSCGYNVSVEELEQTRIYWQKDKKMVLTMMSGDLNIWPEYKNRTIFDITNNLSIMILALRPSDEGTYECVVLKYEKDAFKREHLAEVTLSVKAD
B7: variant CD80 IgV-Fc H18Y/A26E/E35D/M47L/V68M/D90G (Fc fusion, not shown: small tags and cut ends; a dimerising Fc or GST)
chain: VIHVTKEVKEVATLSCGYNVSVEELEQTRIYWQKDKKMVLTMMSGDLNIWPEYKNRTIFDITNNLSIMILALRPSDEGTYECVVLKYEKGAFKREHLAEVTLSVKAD
B8: variant CD80 IgV-Fc H18Y/A26E/E35D/V68M/A71G (Fc fusion, not shown: small tags and cut ends; a dimerising Fc or GST)
chain: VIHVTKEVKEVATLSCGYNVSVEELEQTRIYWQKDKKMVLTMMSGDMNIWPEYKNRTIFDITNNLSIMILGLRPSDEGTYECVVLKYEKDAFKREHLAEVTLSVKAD
B9: variant CD80 IgV-Fc H18Y/A26E/E35D/V68M/A71G/D90G (Fc fusion, not shown: small tags and cut ends; a dimerising Fc or GST)
chain: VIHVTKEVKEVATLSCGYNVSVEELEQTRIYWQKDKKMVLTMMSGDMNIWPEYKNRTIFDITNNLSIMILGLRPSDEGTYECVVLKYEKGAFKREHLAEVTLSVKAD
B10: variant CD80 IgV-Fc H18Y/A26E/E35D/V68M/D90G (Fc fusion, not shown: small tags and cut ends; a dimerising Fc or GST)
chain: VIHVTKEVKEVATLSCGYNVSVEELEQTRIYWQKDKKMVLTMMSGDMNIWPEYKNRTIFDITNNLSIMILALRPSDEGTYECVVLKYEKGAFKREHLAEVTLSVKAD
B11: variant CD80 IgV-Fc H18Y/A26E/M47L/A71G/D90G (Fc fusion, not shown: small tags and cut ends; a dimerising Fc or GST)
chain: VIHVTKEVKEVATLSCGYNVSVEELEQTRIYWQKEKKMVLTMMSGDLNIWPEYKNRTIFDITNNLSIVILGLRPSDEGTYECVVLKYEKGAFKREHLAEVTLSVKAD
B12: variant CD80 IgV-Fc H18Y/A26E/M47L/V68M/D90G (Fc fusion, not shown: small tags and cut ends; a dimerising Fc or GST)
chain: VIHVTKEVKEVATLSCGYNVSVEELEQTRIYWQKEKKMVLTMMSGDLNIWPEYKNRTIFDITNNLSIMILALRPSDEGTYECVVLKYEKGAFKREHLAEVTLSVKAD
B13: variant CD80 IgV-Fc H18Y/A26E/V68M/A71G/D90G (Fc fusion, not shown: small tags and cut ends; a dimerising Fc or GST)
chain: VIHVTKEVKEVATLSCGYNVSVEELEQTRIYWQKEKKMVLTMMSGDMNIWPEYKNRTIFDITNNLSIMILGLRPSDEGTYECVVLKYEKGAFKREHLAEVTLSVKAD
B14: variant CD80 IgV-Fc H18Y/E35D/M47L/V68M/A71G (Fc fusion, not shown: small tags and cut ends; a dimerising Fc or GST)
chain: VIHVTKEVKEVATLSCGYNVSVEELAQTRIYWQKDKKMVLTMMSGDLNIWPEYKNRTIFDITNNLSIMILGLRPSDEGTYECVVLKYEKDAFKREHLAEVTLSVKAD
B15: variant CD80 IgV-Fc H18Y/E35D/M47L/V68M/A71G/D90G (Fc fusion, not shown: small tags and cut ends; a dimerising Fc or GST)
chain: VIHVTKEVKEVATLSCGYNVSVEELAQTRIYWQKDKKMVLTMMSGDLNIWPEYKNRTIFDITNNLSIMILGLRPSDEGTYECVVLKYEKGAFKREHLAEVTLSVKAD
B16: variant CD80 IgV-Fc H18Y/E35D/M47L/V68M/D90G (Fc fusion, not shown: small tags and cut ends; a dimerising Fc or GST)
chain: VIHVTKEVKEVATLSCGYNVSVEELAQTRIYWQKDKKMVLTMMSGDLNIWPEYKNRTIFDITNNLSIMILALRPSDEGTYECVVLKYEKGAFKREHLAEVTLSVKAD
B17: variant CD80 IgV-Fc (inert) H18A/A26N/E35D/M47L/V68M/A71G/D90G (Fc fusion)
chain: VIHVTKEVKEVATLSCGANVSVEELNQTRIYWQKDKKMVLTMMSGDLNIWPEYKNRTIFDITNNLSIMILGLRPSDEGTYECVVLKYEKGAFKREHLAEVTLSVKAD
notes: not shown: inert human IgG1 Fc
B18: variant CD80 IgV-Fc (inert) H18A/A26P/E35D/M47L/V68M/A71G/D90G (Fc fusion)
chain: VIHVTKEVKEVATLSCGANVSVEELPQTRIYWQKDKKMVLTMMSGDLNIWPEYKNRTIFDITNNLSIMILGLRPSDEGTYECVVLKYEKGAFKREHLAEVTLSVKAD
notes: as for B17
B19: variant CD80 IgV-Fc (inert) H18V/A26S/E35D/M47L/V68M/A71G/D90G (Fc fusion)
chain: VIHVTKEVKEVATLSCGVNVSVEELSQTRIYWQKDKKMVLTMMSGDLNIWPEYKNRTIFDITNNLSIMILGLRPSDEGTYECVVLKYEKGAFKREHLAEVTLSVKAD
notes: as for B17
B20: variant CD80 IgV-Fc (inert) H18Y/A26Q/E35D/M47T/V68M/A71G/D90G (Fc fusion)
chain: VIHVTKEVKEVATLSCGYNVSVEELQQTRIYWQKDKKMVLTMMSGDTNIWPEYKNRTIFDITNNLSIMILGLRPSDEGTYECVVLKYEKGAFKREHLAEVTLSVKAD
notes: as for B17
B21: variant CD80 IgV-Fc (inert) H18Y/E35D/M47V/V68M/A71G/D90G (Fc fusion)
chain: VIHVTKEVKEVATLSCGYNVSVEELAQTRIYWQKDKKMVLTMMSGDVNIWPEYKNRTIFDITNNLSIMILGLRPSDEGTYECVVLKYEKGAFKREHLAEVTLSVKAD
notes: as for B17

Experiments:
human CD28 [1] = target: T1, human CD28 (human, UniProt P10747 19-220); assay: flow cytometry, Jurkat/IL2 reporter cells (endogenous CD28)
human PD-L1 [2] = target: T2, human PD-L1 (human, UniProt Q9NZQ7); assay: flow cytometry, CHO cells expressing huPD-L1
T2 construct: also called huPD-L1; CD274

human CTLA4 [3] = target: T3, human CTLA4 (human, UniProt P16410 36-223); assay: flow cytometry, CHO cells expressing huCTLA4
T3 construct: also called huCTLA4

human CTLA4 [4] = target: T3, human CTLA4; assay: flow cytometry, CHO cells expressing huCTLA4; MFI against WT CD80 IgV-Fc
human CD28 [5] = target: T1, human CD28; assay: flow cytometry, Jurkat/IL2 reporter cells (endogenous CD28); MFI against WT CD80 IgV-Fc
human PD-L1 [6] = target: T2, human PD-L1; assay: flow cytometry, CHO cells expressing huPD-L1; MFI against WT CD80 IgV-Fc
human PD-L1 [7] = target: T2, human PD-L1; assay: flow cytometry; PD-L1 MFI over CD28 MFI at 33.3 nM
human PD-L1 [8] = target: T4, human PD-L1 (human, UniProt Q9NZQ7); assay: flow cytometry MFI relative to WT CD80 IgV-Fc, CHO/huPD-L1 cells, 33.3 nM
T4 construct: whole, on cells; CHO cells stably expressing huPD-L1; also called huPD-L1

human PD-L1 [9] = target: T4, human PD-L1; assay: flow cytometry, CHO cells stably expressing huPD-L1, 33.3 nM Fc fusion, PE anti-human Fc
human CTLA-4 [10] = target: T5, human CTLA-4 (human, UniProt P16410 36-223); assay: flow cytometry, CHO cells stably expressing huCTLA-4, 33.3 nM Fc fusion, PE anti-human Fc
T5 construct: whole, on cells; CHO cells stably expressing huCTLA4; also called huCTLA4

human PD-L1 [11] = target: T4, human PD-L1; assay: flow cytometry, MFI on CHO/huPD-L1 cells divided by MFI on Jurkat cells (CD28), 33.3 nM
human CD28 [12] = target: T6, human CD28 (human, UniProt P10747 19-220); assay: flow cytometry MFI relative to WT CD80 IgV-Fc, Jurkat cells (CD28), 33.3 nM
T6 construct: whole, on cells; Jurkat/IL2 reporter cells, which endogenously express CD28

human CTLA-4 [13] = target: T5, human CTLA-4; assay: flow cytometry MFI relative to WT CD80 IgV-Fc, CHO/huCTLA-4 cells, 33.3 nM
human CD28 [14] = target: T6, human CD28; assay: flow cytometry, Jurkat/IL2 reporter cells (endogenous CD28), 33.3 nM Fc fusion, PE anti-human Fc

T3 sequence (P16410 36-223): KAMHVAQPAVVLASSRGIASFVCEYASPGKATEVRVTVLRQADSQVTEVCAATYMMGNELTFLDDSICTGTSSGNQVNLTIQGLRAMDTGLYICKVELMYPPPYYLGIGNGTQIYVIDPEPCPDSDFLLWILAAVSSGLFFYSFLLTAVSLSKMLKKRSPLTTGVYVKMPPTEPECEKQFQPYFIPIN
T5 sequence (P16410 36-223): as above

| Binder | MFI at 33.3 nM (human CD28 [1]) | MFI at 33.3 nM (human PD-L1 [2]) | MFI at 33.3 nM (human CTLA4 [3]) | Fold change to WT CD80 (human CTLA4 [4]) | Fold change to WT CD80 (human CD28 [5]) | Fold change to WT CD80 (human PD-L1 [6]) | Ratio of PDL1:CD28 (human PD-L1 [7]) | Fold change to WT CD80 (human PD-L1 [8]) | MFI at 33.3 nM (human PD-L1 [9]) | MFI at 33.3 nM (human CTLA-4 [10]) | Ratio of PDL1:CD28 (human PD-L1 [11]) | Fold change to WT CD80 (human CD28 [12]) | Fold change to WT CD80 (human CTLA-4 [13]) | MFI at 33.3 nM (human CD28 [14]) |
| --- | --- | --- | --- | --- | --- | --- | --- | --- | --- | --- | --- | --- | --- | --- |
| B1 | 2210 MFI | 30200 MFI | 21700 MFI | 16 fold | 50.4 fold | 693 fold | 13.7 ratio |  |  |  |  |  |  |  |
| B2 | 2100 MFI | 26500 MFI | 23300 MFI | 17.1 fold | 47.9 fold | 608 fold | 12.6 ratio |  |  |  |  |  |  |  |
| B3 | 1080 MFI | 14800 MFI |  | -0.1 fold | 24.5 fold | 340 fold | 13.8 ratio |  |  |  |  |  |  |  |
| B4 | 379 MFI | 16900 MFI | 19400 MFI | 14.2 fold | 8.6 fold | 387 fold | 44.6 ratio |  |  |  |  |  |  |  |
| B5 | 1380 MFI | 12700 MFI | 19700 MFI | 14.5 fold | 31.4 fold | 291 fold | 9.2 ratio |  |  |  |  |  |  |  |
| B6 |  | 24700 MFI | 20000 MFI |  |  |  |  |  |  |  |  |  |  |  |
| B7 | 2680 MFI | 25200 MFI | 24900 MFI | 18.3 fold | 60.9 fold | 578 fold | 9.4 ratio |  |  |  |  |  |  |  |
| B8 | 394 MFI | 27500 MFI | 19400 MFI | 14.3 fold | 9 fold | 630 fold | 69.7 ratio |  |  |  |  |  |  |  |
| B9 | 1760 MFI | 28700 MFI | 23400 MFI | 17.2 fold | 40 fold | 658 fold | 16.3 ratio |  |  |  |  |  |  |  |
| B10 | 2580 MFI | 23200 MFI | 19300 MFI | 14.2 fold | 58.9 fold | 532 fold | 9 ratio |  |  |  |  |  |  |  |
| B11 | 2050 MFI |  | 25400 MFI |  |  |  |  |  |  |  |  |  |  |  |
| B12 |  | 23600 MFI | 28600 MFI | 21.1 fold | 0.7 fold | 541 fold | 737 ratio |  |  |  |  |  |  |  |
| B13 | 2680 MFI | 27900 MFI | 18300 MFI | 13.5 fold | 61.1 fold | 639 fold | 10.4 ratio |  |  |  |  |  |  |  |
| B14 | 928 MFI | 30400 MFI | 23700 MFI | 17.4 fold | 21.1 fold | 697 fold | 32.7 ratio |  |  |  |  |  |  |  |
| B15 |  | 29900 MFI | 19900 MFI |  |  |  |  |  |  |  |  |  |  |  |
| B16 | 3390 MFI | 27400 MFI |  |  |  |  |  |  |  |  |  |  |  |  |
| B17 |  |  |  |  |  |  |  | 220 fold | 36300 MFI | 21400 MFI | 7.4 ratio | 48.2 fold | 15.4 fold | 4910 MFI |
| B18 |  |  |  |  |  |  |  | 203 fold | 33400 MFI | 23800 MFI | 7.1 ratio | 46.4 fold | 17.2 fold | 4730 MFI |
| B19 |  |  |  |  |  |  |  | 448 fold | 73900 MFI | 24900 MFI | 9.2 ratio | 79 fold | 18 fold | 8060 MFI |
| B20 |  |  |  |  |  |  |  | 148 fold | 24400 MFI | 16700 MFI | 3.6 ratio | 66 fold | 12 fold | 6730 MFI |
| B21 |  |  |  |  |  |  |  | 316 fold | 52200 MFI | 17200 MFI | 7.7 ratio | 66.6 fold | 12.4 fold | 6790 MFI |
